Data on 56 sequences can be found in the supplement of paper PMC11417369.

The other results are listed elsewhere or left out.

In this assay the test system is PfAP2-HC AP2 domain (GST-tagged). The experiment in a line: gcPBM binding intensity (ln(normalized median fluorescence intensity)); higher = stronger DNA binding. The essentials: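 Binding intensity values are the highest Masliner-normalised natural-log median intensity among replicate spots of either probe orientation. The binding step lasted 1 h in 1× PBS with 1% milk, 0.2 mg/ml BSA, 0.5% salmon testes DNA and 0.03% Triton X-100, using GST-tagged P. falciparum DNA-binding domains expressed in E. coli on an Agilent 4 × 180k array of primer-extended double-stranded 36-bp intergenic genomic probes plus negative controls. Alexa488 anti-GST antibody and a 488 nm scan detected bound protein.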
“ATAATATGTATGGTCACACAGACAAGGAAAGAATAA [CACACA_site5164]”: the “gcPBM binding intensity (ln)” value worked out at 9.99.
Regarding “GTATATTTTAATATGACACACATATTATATATATAT [CACACA_site2483]”, the “gcPBM binding intensity (ln)” value was 9.89.
The figure for “AAAAAAAAAAAAAAATGTACATATATATATATATAT [XGTACX_site876]” is 9.64; for “ATAATAATATTGTGTACACAATAATTTGTCAAATCA [CACACA_site6019]” it is 9.69; for “ACATATACAAGACACACACACAACGTTTTAATAAAT [CACACA_site7017]” it is 11.2.
The result for “AAGGAATATGTATATACACACAGGTACATATATATA [CACACA_site441]” reads 9.93; that for “AAAAAATAATAATAATGTACAAATAAAATAAAAACA [XGTACX_site6568]”, 9.92; that for “TCGTGTGAAAATATTACACACATTTACTATAGTATC [CACACA_site7590]”, 9.91.
As to “ATAAAAATTGAAACATGTACACATATTCATTTTATA [XGTACX_site7968]”, the “gcPBM binding intensity (ln)” value stood at 9.58.
Regarding “ATATATTTTTACCATACACACATATAATAAATATAT [CACACA_site3722]”, the “gcPBM binding intensity (ln)” value is 9.86.
Take “TCATTAATATTTCATAGTACAATTTTGTCTAATTGT [XGTACX_site6720]”: the “gcPBM binding intensity (ln)” value turned out to be 9.55.
The result for “TTATATTATACATACACACCCATATAACATGTTTTT [CACACA_site6539]” reads 9.89.
The result for “AATGGAAAAAAAAAAATAAATACAAATAAATACAAA [GTGCAC_negctrl_site407]” reads 9.63.
On to “TATTTTTTTCTTACTACACACATATATATGCTTTCC [CACACA_site4058]”, for which the “gcPBM binding intensity (ln)” value worked out at 10.
The result for “CCCCCCGTGTTATATACACACATAATCAAATAAAAT [CACACA_site4111]” reads 10.5; that for “AGAAATAAGAAATATACACACATATATATATATATA [CACACA_site2808]”, 9.69; that for “TCTTATTAAAATATTTATATAGGTAATCACAATATT [GTGCAC_negctrl_site568]”, 9.76.
In the case of “TATAAAATAAGACATGCATGTTATACATATATATAT [TGCATGCA_site314]”, the “gcPBM binding intensity (ln)” value came to 9.89.
The result for TTTTGTTATGAGAGGGTGCTAATATTTGGATATAAA reads 9.86.
The result for “AAAAAAAGAAAAATTGCACACACTTATAAAAATATA [CACACA_site4014]” reads 9.88; that for “AAAAAAAAAAAAAGTAGTACATAATATGTTCCTCCT [XGTACX_site8356]”, 9.47; that for “ATTATAAATTAAAATACACACATATATACCTAATAT [CACACA_site5541]”, 9.84.
The figure for “ATATATAATTACACAAATAAAAAAATAAAATGAAAT [CACACA_negctrl_site1513]” is 9.79.
“AGAATAAAAATACAAGCACACATGTATGAAATATAT [CACACA_site3213]”: the “gcPBM binding intensity (ln)” value came to 10.2.
Consider “TGAACAATGTATAATTGTACGCAACGAAAATAAAAA [XGTACX_site1559]”, for which the “gcPBM binding intensity (ln)” value was determined as 9.74.
The figure for “ATCATGTTATATATGTGTACATATATATGATATAAT [XGTACX_site991]” is 9.69; for “AAAAAAAAAATACAACAAAGTTAAATAAATAAATAA [GTGCAC_negctrl_site402]” it is 9.63.
The result for “AAATAAAAGGTTGAGAGTACATTTTTGTGTATGTAT [XGTACX_site5547]” reads 9.72; that for “ATATTTCATTAATGAACACACAAAGAGGTATATAAA [CACACA_site1519]”, 9.9; that for ATATTTAAAAATATAGTGCAATTATTCTAATGTGTT, 9.59.
The result for “AGCTCTCAAAATTATTCACACGTGTCCTGTTATATA [CACACA_site5415]” reads 10.1; that for “TTTTTTCTTTTATGTGAAATGTAATATTGTTATATA [GTGCAC_negctrl_site715]”, 9.51.
As to “AGGTGATTGATATATACACACATACCTATATTTATA [CACACA_site7348]”, the “gcPBM binding intensity (ln)” value was 9.79.
The figure for “TGTTTATTTAATAATATTTTTTTTTTTATTATATTA [XGTACX_negctrl_site56]” is 9.48; for “TTATTAAAATATTCTAGTACATATAAAAGGAGAACA [XGTACX_site4374]” it is 9.63; for “GTGCTTATTTATACATGTACAAATGATAAGTTTGTA [XGTACX_site169]” it is 9.66.
The figure for “GAAATAAATATATATGCATGTACTTTAATATTATTA [TGCATGCA_site904]” is 9.66.
As for “TAAATATATTCATAAAGTACAAAGCAAAATTGTCTA [XGTACX_site7274]”, the “gcPBM binding intensity (ln)” value was 9.63.
The figure for “ATATATTATTTTAAATGTACTCATAATAGAAATGTC [XGTACX_site40]” is 9.54; for “ATATAAAGAAAAGGAACACACAAATATATATATATA [CACACA_site463]” it is 9.8; for “CACACAGGTAAAAAGGTGCAGTTGAAATATTCCTCA [GTGCAC_site9730]” it is 9.69.
The result for “TGATATTTTATTATTAAAATATATACATATATATAT [CACACA_negctrl_site1456]” reads 9.76; that for “ATAAAAATAAAATGGACACACATATATACCTATTTG [CACACA_site5761]”, 10.1.
In the case of “AAGAAAAAAAAAAAAAAAGATACTTTTTTAAAACTA [TGCATGCA_negctrl_site13]”, the “gcPBM binding intensity (ln)” value was found to be 9.32.
As to “TTATATTTTTACAAGAGTACATATATATATATATAT [XGTACX_site5383]”, the “gcPBM binding intensity (ln)” value worked out at 9.55.
In the case of “GTGCAATATTTATTTTGTACATATTTATCAATAAAC [XGTACX_site8297]”, the “gcPBM binding intensity (ln)” value was 9.52.
The result for “ACATCGATTTATATTCTGCACTGAAGAAACTACAAC [GTGCAC_site9967]” reads 9.59; that for “ATTAAATATATTAAATGTACATAATATATATATATA [XGTACX_site5032]”, 9.76.
The result for “TTTATTTGATGAACATGTACAAAAAAACAAAGAACA [XGTACX_site823]” reads 9.64; that for “TCAAACCAGTTGATGTGTACACATATAGTAATAATT [XGTACX_site6014]”, 9.91; that for “TATTTATACATAGGTGGTACTACTTTAAACAAAAAA [XGTACX_site5062]”, 9.51.
Take “TATATGGAGAGATATGCACACTGTATGAATGCCCCC [CACACA_site8853]”: the “gcPBM binding intensity (ln)” value was 10.1.
The result for “AAATAAATAATATTCACACATAAAAAAAATGGAGTT [CACACA_site4525]” reads 9.77; that for “TTGCACAGATTAATCAAAAATTTTAAACCAAATATA [XGTACX_negctrl_site38]”, 9.45.
With “TATTTACACAAAATAAAATATATTATATATATATAT [TGCATGCA_negctrl_site381]”, the “gcPBM binding intensity (ln)” value turned out to be 9.47.
As for “AGAATAGAATAAAAAACACACATTTACAACATTATT [CACACA_site3894]”, the “gcPBM binding intensity (ln)” value came to 10.
